# Laboratory results reported in the antibiotic and cytotoxicity screens of Wong et al. (2023).
# This is one part of the list.
# Columns and labels:
# [1] = system: HSkMC (human skeletal muscle cells); experiment: cytotoxicity call (relative viability < 0.9); conditions: 10 µM
# [2] = system: HepG2; experiment: cytotoxicity call (relative viability < 0.9); conditions: 10 µM
# [3] = system: S. aureus RN4220; experiment: growth inhibition call (relative growth <= 0.2); conditions: 50 µM
SMILES,cytotoxicity call [1],cytotoxicity call [2],growth inhibition call [3]
C[C@@H]1CN([C@H](C)CO)C(=O)Cc2cc(NC(=O)NC3CCCCC3)ccc2O[C@@H]1CN(C)Cc1ccc(-c2ccccc2)cc1,inactive,inactive,inactive
C[C@@H]1CN([C@H](C)CO)C(=O)c2cc(NC(=O)CCCN(C)C)ccc2O[C@@H](C)CCCCO[C@@H]1CN(C)S(=O)(=O)c1cn(C)cn1,inactive,inactive,inactive
CC(C)NC(=O)Nc1ccc2c(c1)CC(=O)N([C@@H](C)CO)C[C@H](C)[C@H](CN(C)C(=O)NC1CCCCC1)O2,inactive,inactive,inactive
C[C@@H]1CN([C@H](C)CO)C(=O)c2cc(NC(=O)CCC(F)(F)F)ccc2O[C@@H]1CN(C)C(=O)Nc1cccc2ccccc12,inactive,inactive,inactive
COc1ccc(NC(=O)Nc2ccc3c(c2)C(=O)N([C@@H](C)CO)C[C@H](C)[C@H](CN(C)CC2CCCCC2)OCCCC[C@@H](C)O3)cc1,inactive,inactive,inactive
Nc1ncnc2c1ncn2[C@@H]1O[C@H](COP(=O)(O)OP(=O)(O)OP(=O)(O)OP(=O)(O)OC[C@H]2O[C@@H](n3cnc4c(N)ncnc43)[C@H](O)[C@@H]2O)[C@@H](O)[C@H]1O,inactive,active,inactive
C[C@@H]1CN([C@H](C)CO)C(=O)c2cc(NC(=O)Nc3ccc(C(F)(F)F)cc3)ccc2O[C@H]1CN(C)Cc1ccc(C(=O)O)cc1,inactive,inactive,inactive
